Measurements: PubChem BioAssay AID624202 (National Center for Advancing Translational Sciences (NCATS), 2012)
Values joined by “and” are separate entries in the source; they are usually repeats but may differ in a detail not shown here. Equal entries are not always repeated. The campaign covered roughly 380,000 compounds. About 4,000 (1.1%) were called active. The shares of active, inactive and inconclusive entries below differ from those in the screen. Calls follow the shape of the dose curve; as a rule, active = well fitted activation curve with a large enough effect; inconclusive = small, poorly fitted or top-dose-only effect; inactive = no such curve, though single readings can be large or run the other way. A potency beside an inconclusive call is a rough fit, not a confirmed value.

Assay: qHTS Assay to Identify Small Molecule Activators of BRCA1 Expression; also: nearly all actives have a fitted effect of over 80% in size
Conditions: MCF7-BRCA1-FFLuc reporter, luminescence, 48 h; series mostly up to 46.1 µM
Outline: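 Luminescence from a BRCA1-driven firefly luciferase in MCF7 cells was the read-out, taken 15 min after substrate addition following 48 h compound exposure at 37 °C. Data were normalized to a 10 microM genistein control and DMSO vehicle.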
Potency is read from the fitted curve at half-maximal effect; tags tell the direction and shape of the fitted curve.

Row | Structure (SMILES) | Potency
1 | Cc1cccc(C(=O)Nc2ccc(Oc3cnccn3)cc2)c1 | inconclusive: 22.4 µM [activator, partial curve, poor fit]
2 | CCOC(=O)C1=C(C)N=c2s/c(=C\c3ccc(O)c([N+](=O)[O-])c3)c(=O)n2C1c1ccccc1OC (stereo not drawn) | inactive
3 | Cc1ccc(C2=N/C(=C/N3CCOCC3)C(=O)O2)cc1 | active: 8.91 µM
4 | CC(=O)c1ccc(OCc2cc(C(=O)N3CCN(c4ccccc4)CC3C)no2)cc1 (stereo not drawn) | inconclusive: 1.78 µM [activator, full curve, poor fit]
5 | COc1ccc(C2=NN(S(C)(=O)=O)C(c3ccc4nccnc4c3)C2)cc1 (stereo not drawn) | inconclusive: 2.24 µM [activator, full curve, poor fit]
6 | COc1ccc(/C=C2\SC(=O)N(CCNC(=O)CCS(=O)(=O)c3ccc(C)cc3)C2=O)cc1 | inconclusive: 14.1 µM [activator, partial curve, poor fit]
7 | O=C(Cc1ccccc1[N+](=O)[O-])NCc1ccc(Cl)cc1 | inconclusive: 20 µM [activator, partial curve, poor fit]
8 | O=C(NC(=S)Nc1ccccc1)c1ccc(-c2ccccc2)cc1 | inactive
9 | COC(=O)c1sc(NC(=S)NC(=O)c2ccccc2Cl)nc1C | inconclusive: 22.4 µM [activator, single point]
10 | COc1ccc(-c2nc(-c3cccnc3)no2)cc1 | inconclusive: 10 µM [activator, partial curve, poor fit] and inconclusive: 2.51 µM [activator, full curve, poor fit]
11 | COc1ccc(-c2csc(NC(=O)c3ccco3)n2)cc1 | inconclusive: 2.51 µM [activator, partial curve, poor fit]
12 | O=C(COc1ccccc1)NCC(=O)N1CCCC1 | inactive
13 | Oc1cc(O)cc(/C=C/c2ccc(O)c(O)c2)c1 | inconclusive: 17.8 µM [activator, single point]
14 | CCn1c(C(=O)N2CCCC(C(=O)O)C2)cc2sccc21 (stereo not drawn) | inactive
15 | Cn1ncc2cc(NC(=S)NC(=O)c3ccccc3)ccc21 | inconclusive: 2.24 µM [activator, full curve, poor fit]
16 | C=CCn1c(SCC(=O)c2cc(C)n(C(C)COC)c2C)nc2sc(C)c(C)c2c1=O (stereo not drawn) | inactive
17 | Cc1ccc(OCc2cc(C(=O)N3CCN(c4ccccc4)CC3)no2)cc1C | inconclusive: 6.31 µM [activator, full curve, poor fit]
18 | Cc1ccc(Nc2nc(N)c([N+](=O)[O-])c(NCc3ccco3)n2)cc1 | inconclusive: 14.1 µM [activator, partial curve, poor fit]
19 | CC(C)CNC(=O)C1CCN(Cc2ccc(OCc3ccccc3)cc2)CC1 | inconclusive: 35.5 µM [activator, single point]
20 | CC(=O)c1ccc(NC(=O)c2cc(Cl)sc2Cl)cc1 | active: 3.98 µM
21 | Nc1nc2ccccc2n1C(=O)c1cccs1 | inconclusive: 0.631 µM [activator, full curve, poor fit]
22 | O=C(NN=C1CCCCCC1)c1cccs1 | inconclusive: 31.6 µM [activator, single point]

Row | Structure (SMILES) | Potency
23 | CC(C)C(=O)Nc1nc2ccc(S(C)(=O)=O)cc2s1 | active: 11.2 µM
24 | O=c1oc(Nc2ccc(F)cc2)nc2ccccc12 | inconclusive: 7.94 µM [activator, partial curve, poor fit]
25 | Nc1scc(-c2ccncc2)c1Cl | inconclusive: 10 µM [activator, partial curve, poor fit]
26 | Cc1ccccc1-c1nnc(CN2CCC(C)CC2)o1 | inconclusive: 11.2 µM [activator, partial curve, poor fit]
27 | CC1CCc2c(sc(NC(=S)NC(=O)c3ccccc3)c2C#N)C1 (stereo not drawn) | active: 11.2 µM
28 | Cn1c(/N=C(\N)c2ccccc2)nc2ccccc21 | inconclusive: 8.91 µM [activator, partial curve, poor fit]
29 | COc1ccc(/[N+]([O-])=C/c2ccco2)cc1 | active: 8.91 µM
30 | COc1ccc(NC(=O)CCSc2nnnn2C)cc1 | inconclusive: 20 µM [activator, single point]
31 | O=C(Nc1ccc(F)cc1)Nc1ccc2c(c1)OCO2 | inconclusive: 3.55 µM [activator, partial curve, poor fit]
32 | COc1ccc(NC(=O)c2cc3ccccc3oc2=O)cc1 | inconclusive: 0.891 µM [activator, full curve, poor fit]
33 | c1cnc2ccc(-c3ccc4ncccc4c3)cc2c1 | inconclusive: 0.631 µM [activator, full curve, poor fit]
34 | O=c1c2ccccc2nnn1CSc1nnnn1-c1ccccc1 | inconclusive: 20 µM [activator, partial curve, poor fit]
35 | O=C(Nc1csnn1)OCc1ccccc1 | inconclusive: 35.5 µM [activator, single point]
36 | CCCOc1ccc(CSc2ncn[nH]2)cc1 | inconclusive: 12.6 µM [activator, partial curve, poor fit]
37 | CC(C(=O)N1CCCCC1)n1sc2ccccc2c1=O (stereo not drawn) | inconclusive: 12.6 µM [activator, partial curve, poor fit]
38 | O=C(Nc1ccc2nc(-c3ccccc3)[nH]c2c1)c1ccco1 | inconclusive: 2.82 µM [activator, full curve, poor fit]
39 | O=C(Cc1ccc(Cl)cc1)Nc1ccc(Cl)cn1 | inconclusive: 12.6 µM [activator, partial curve, poor fit]
40 | CCCn1c(C)cc(C(=O)COC(=O)c2cc(=O)[nH]c3ccccc23)c1C | inconclusive: 1.12 µM [activator, full curve, poor fit]
41 | CCOC(=O)C1CCN(CC(=O)c2c(C)[nH]c3ccccc23)CC1 | inactive
42 | COc1ccc(/C=N/NC(=O)c2cc(-c3ccccc3OC)nc3ccccc23)cc1COC(C)=O | inactive
43 | CC(C)(CO)NC(=O)c1ccc2c(c1)C(=O)c1ccccc1-2 | inconclusive: 11.2 µM [activator, partial curve, poor fit]
